# From the supplement of paper PMC8728848
# The other results are listed elsewhere or left out.
# B1: InvD YPIII (Yersinia pseudotuberculosis), B1JSC0 (protein)
# chain: MIKYFSFFKKPEPIVGILPNRQSHHILPTHIRRVAWGTLLLQLFIPLSVSFSPAIAAMKASKADTMVSYSSTEPYVLGSGETVAMVAKKYGITVDELKKINIYRTFSRPFTALTTGDEIDIPRKASPFSVDNNKDNRLSVENTLAGHAVAGATALSNGDVAKSGERMVRSAASNEFNNSAQQWLSQFGTARVQLNINDDFHLDGSAADVLIPLYDNEKSILFTQLGARNKDSRNTVNMGAGVRTFQGNWMYGANTFFDNDLTGKNRRIGVGAEAWTDYLKLSANNYFGITDWHQSRDFIDYNERPANGYDLRAEAYLPSYPQLGGKAMYEKYRGDDVALFGKDNRQKNPHAITAGVNYTPIPLVTIGAEHRAGKGGQNDSNINFQLNYRLGETWQSHIDPSAVAASRTLAGSRYDLVERNNHIVLDYQKQNLVRLSLPDSLAGDPFSQLSVTAQVTATHGLERIDWQSAELMAAGGVLKQTSKNGLEITLPEYQMNRTGGNSYILNAIAYDTQGNASSQASMLITVNAQKINIANSTLVAVPINIEANNSDTSVVTLTLKDDNNIPVTGQDVTFLSPLGTLSAMTDSGNGVYTATLTAGTVSGTTAVSSNINGSALDMTPATVTLNGNSGELSITHSMLVAAPVNIEANGSDTSVVTLTLRDSNNNPVTGQTVTFAGTLGTLGAVTEGSSGVYTATLTAGIMVGTSSITASVNSTALGVTPATVTLNGDSGNLSTTNSTLVAAPVNIEANSSDTSVVTLTLRDNNNNPVTGQTVVFTSTLGTLGNVTEQASGVYTATLTAGTVSGVASLSVSVGGNALGVTPATVTLNGDSGNLSTTNSTLVAAPVNIEANSSDTSVVTLTLRDNNNNPVTGQTVNFAGTLGTLGTVSEGSSGVYTTTLTAGTVAGVASLSVNVGGNALGVTPATVTLNGNSGNLSATNSTLVAAPVNIEANSSDTSVVTLTLRDNNNNPVTGQTVAFTSTLGTLGNVTEQASGVYTATLTAGTVSGVASLSVSVNSNALGVTPATVTLNGDSGNLSTTNSTLVAAPVNIEANSSDTSVVTLTLRDNNNNPVTGQTVAFTSTLGTLGNVTEQASGLYTATLTAGTVSGVASLSVNVGGNALGVTPATVTLNGDSGNLSATNSTLVAAPVNIEANSSDTSVVTLTLRDNNNNPVTGQTVAFTSTLGTLGNVTEQASGLYTATLTAGTVSGVASLSVNVGGTALGVTPATVTLNGDSGNLSTTNSTLVAAPVNIEANSSDTSVVTLTLRDNNNNPVTGQTVAFTSTLGTLGNVTEQASGLYTATLTAGTVSGVASLSVSVNSTALGVTPATVTLNGDSGNLSTTNSTLVAAPVNIEANSSDTSVVTLTLRDNNNNPVTGQTVAFTSTLGTLGNVTEQASGVYTATLTAGTVAGVASLSVNVGGNALGVTPATVTLNGDSGNLSTTNSTLVAAPVNIEANSSDTSVVTLTLRDNNNNPVTGQTVAFTSTLGTLGNVTEQASGVYTATLTAGTVSGVASLSVSVGSSALGVTPATVTLNGDSGNLSTTNSTLVAAPVNIEANNSDTSVVTLTLRDNNNNPVTGQTVAFTSTLGTLGNVTEQASGVYTATLTAGTVSGVASLSVSVNSNALGVTPATVTLNGDSGNLSTTNSTLVAAPVNIEANSSDTSVVTLTLRDNNNNPVTGQTVVFTSTLGTLGNVTEQASGLYTATLTAGTVSGVASLSVSVGGNALGVTGNITLAPGALDAARSILAVNKPSINADDRIGSTITFTAQDAQGNAITGLDIAFMTDLENSQIMTLVDHNDGTYTANINGTQTGIANIAVQSSGATIAGLAATMVTITPGAWNTTQATPVMTVALPITTCQSSSGVYKRYYIGIVTHELYDNYGNEISGILTYNLGAGRYTTVTSQNSSVSGSNGLTRRSNSPVSHFILTSDAYTSQAACYAERIANVNVTITVTAITDDFKTSAVNKVFILGTGSN
# What was measured:
# Assay in all cases: glycan array binding signal (z-score within array); higher = stronger binding
# Settings in all cases: glycan notation: IUPAC condensed, linker removed
# [1] = target: Gal(b1-4)GalNAc(b1-3)[Fuc(a1-2)]Gal(b1-4)GlcNAc
# Outline: (§1)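 Negative Z-scores can be read as non-binding. The Z-score is calculated within each array and then averaged across arrays of one protein sequence at different concentrations or buffers and across linkers. Arrays, 3228 in all, were curated from the Consortium for Functional Glycomics database and kept only where the protein sequence was available.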
# Gal(b1-4)Glc = target: Gal(b1-4)Glc
# Outline: as §1
# Gal(b1-4)Glc6S = target: Gal(b1-4)Glc6S
# Outline: as §1
# Gal(b1-4)GlcNAc = target: Gal(b1-4)GlcNAc
# Outline: as §1
# [2] = target: Gal(b1-4)GlcNAc(a1-6)Gal(b1-4)GlcNAc
# Outline: as §1
# Gal(b1-4)GlcNAc(b1-2)Man = target: Gal(b1-4)GlcNAc(b1-2)Man
# Outline: as §1
# [3] = target: Gal(b1-4)GlcNAc(b1-2)Man(a1-3)Man(b1-4)GlcNAc(b1-4)GlcNAc
# Outline: as §1
# [4] = target: Gal(b1-4)GlcNAc(b1-2)Man(a1-3)[Gal(b1-4)GlcNAc(b1-2)Man(a1-6)]Man(b1-4)GlcNAc(b1-4)GlcNAc
# Outline: as §1
# [5] = target: Gal(b1-4)GlcNAc(b1-2)Man(a1-3)[Gal(b1-4)GlcNAc(b1-2)Man(a1-6)]Man(b1-4)GlcNAc(b1-4)[Fuc(a1-6)]GlcNAc
# Outline: as §1
# [6] = target: Gal(b1-4)GlcNAc(b1-2)Man(a1-3)[Gal(b1-4)GlcNAc(b1-2)Man(a1-6)][Gal(b1-4)GlcNAc(b1-4)]Man(b1-4)GlcNAc(b1-4)[Fuc(a1-6)]GlcNAc
# Outline: as §1
# [7] = target: Gal(b1-4)GlcNAc(b1-2)Man(a1-3)[Gal(b1-4)GlcNAc(b1-2)Man(a1-6)][GlcNAc(b1-4)]Man(b1-4)GlcNAc(b1-4)[Fuc(a1-6)]GlcNAc
# Outline: as §1
# [8] = target: Gal(b1-4)GlcNAc(b1-2)Man(a1-3)[GlcNAc(b1-2)Man(a1-6)]Man(b1-4)GlcNAc(b1-4)GlcNAc
# Outline: as §1
# [9] = target: Gal(b1-4)GlcNAc(b1-2)Man(a1-3)[GlcNAc(b1-4)][Gal(b1-4)GlcNAc(b1-2)Man(a1-6)]Man(b1-4)GlcNAc(b1-4)GlcNAc
# Outline: as §1
# [10] = target: Gal(b1-4)GlcNAc(b1-2)Man(a1-3)[Man(a1-6)]Man(b1-4)GlcNAc(b1-4)GlcNAc
# Outline: as §1
# [11] = target: Gal(b1-4)GlcNAc(b1-2)Man(a1-6)Man(b1-4)GlcNAc(b1-4)GlcNAc
# Outline: as §1
# [12] = target: Gal(b1-4)GlcNAc(b1-2)Man(a1-6)[GlcNAc(b1-2)Man(a1-3)]Man(b1-4)GlcNAc(b1-4)GlcNAc
# Outline: as §1
# [13] = target: Gal(b1-4)GlcNAc(b1-2)Man(a1-6)[Man(a1-3)]Man(b1-4)GlcNAc(b1-4)GlcNAc
# Outline: as §1
# [14] = target: Gal(b1-4)GlcNAc(b1-2)[Gal(b1-4)GlcNAc(b1-4)]Man(a1-3)[Gal(b1-4)GlcNAc(b1-2)Man(a1-6)]Man(b1-4)GlcNAc(b1-4)GlcNAc
# Outline: as §1
# [15] = target: Gal(b1-4)GlcNAc(b1-2)[Gal(b1-4)GlcNAc(b1-4)]Man(a1-3)[Gal(b1-4)GlcNAc(b1-2)[Gal(b1-4)GlcNAc(b1-6)]Man(a1-6)]Man(b1-4)GlcNAc(b1-4)GlcNAc
# Outline: as §1
# [16] = target: Gal(b1-4)GlcNAc(b1-2)[Gal(b1-4)GlcNAc(b1-4)]Man(a1-3)[GlcNAc(b1-4)][Gal(b1-4)GlcNAc(b1-2)Man(a1-6)]Man(b1-4)GlcNAc(b1-4)GlcNAc
# Outline: as §1
# [17] = target: Gal(b1-4)GlcNAc(b1-2)[Gal(b1-4)GlcNAc(b1-4)]Man(a1-3)[GlcNAc(b1-4)][Gal(b1-4)GlcNAc(b1-2)[Gal(b1-4)GlcNAc(b1-6)]Man(a1-6)]Man(b1-4)GlcNAc(b1-4)GlcNAc
# Outline: as §1
# [18] = target: Gal(b1-4)GlcNAc(b1-2)[Gal(b1-4)GlcNAc(b1-6)]Man(a1-6)[Gal(b1-4)GlcNAc(b1-2)Man(a1-3)]Man(b1-4)GlcNAc(b1-4)GlcNAc
# Outline: as §1
# [19] = target: Gal(b1-4)GlcNAc(b1-2)[Gal(b1-4)GlcNAc(b1-6)]Man(a1-6)[Gal(b1-4)GlcNAc(b1-2)Man(a1-3)]Man(b1-4)GlcNAc(b1-4)[Fuc(a1-6)]GlcNAc
# Outline: as §1
# [20] = target: Gal(b1-4)GlcNAc(b1-2)[Gal(b1-4)GlcNAc(b1-6)]Man(a1-6)[GlcNAc(b1-4)][Gal(b1-4)GlcNAc(b1-2)Man(a1-3)]Man(b1-4)GlcNAc(b1-4)GlcNAc
# Outline: as §1
# [21] = target: Gal(b1-4)GlcNAc(b1-2)[Gal(b1-4)GlcNAc(b1-6)]Man(a1-6)[GlcNAc(b1-4)][Gal(b1-4)GlcNAc(b1-2)[Gal(b1-4)GlcNAc(b1-4)]Man(a1-3)]Man(b1-4)GlcNAc(b1-4)[Fuc(a1-6)]GlcNAc
# Outline: as §1
# [22] = target: Gal(b1-4)GlcNAc(b1-3)Gal(b1-3)GalNAc
# Outline: as §1
# [23] = target: Gal(b1-4)GlcNAc(b1-3)Gal(b1-3)GlcNAc
# Outline: as §1
# [24] = target: Gal(b1-4)GlcNAc(b1-3)Gal(b1-4)Glc
# Outline: as §1
# [25] = target: Gal(b1-4)GlcNAc(b1-3)Gal(b1-4)GlcNAc
# Outline: as §1
# [26] = target: Gal(b1-4)GlcNAc(b1-3)Gal(b1-4)GlcNAc(b1-2)Man(a1-3)[Gal(b1-4)GlcNAc(b1-3)Gal(b1-4)GlcNAc(b1-2)Man(a1-6)]Man(b1-4)GlcNAc(b1-4)GlcNAc
# Outline: as §1
binder,measurement,setting,value
B1,glycan array binding signal (z-score),[1],-0.161
same,glycan array binding signal (z-score),Gal(b1-4)Glc,-0.098
same,glycan array binding signal (z-score),Gal(b1-4)Glc6S,-0.213
same,glycan array binding signal (z-score),Gal(b1-4)GlcNAc,-0.187
same,glycan array binding signal (z-score),[2],-0.321
same,glycan array binding signal (z-score),Gal(b1-4)GlcNAc(b1-2)Man,-0.152
same,glycan array binding signal (z-score),[3],-0.355
same,glycan array binding signal (z-score),[4],-0.06
same,glycan array binding signal (z-score),[5],0.529
same,glycan array binding signal (z-score),[6],-0.312
same,glycan array binding signal (z-score),[7],-0.026
same,glycan array binding signal (z-score),[8],0.014
same,glycan array binding signal (z-score),[9],-0.317
same,glycan array binding signal (z-score),[10],0.326
same,glycan array binding signal (z-score),[11],-0.32
same,glycan array binding signal (z-score),[12],-0.269
same,glycan array binding signal (z-score),[13],-0.393
same,glycan array binding signal (z-score),[14],-0.227
same,glycan array binding signal (z-score),[15],-0.176
same,glycan array binding signal (z-score),[16],-0.258
same,glycan array binding signal (z-score),[17],-0.086
same,glycan array binding signal (z-score),[18],-0.006
same,glycan array binding signal (z-score),[19],-0.014
same,glycan array binding signal (z-score),[20],-0.28
same,glycan array binding signal (z-score),[21],-0.22
same,glycan array binding signal (z-score),[22],-0.131
same,glycan array binding signal (z-score),[23],-0.132
same,glycan array binding signal (z-score),[24],-0.202
same,glycan array binding signal (z-score),[25],-0.251
same,glycan array binding signal (z-score),[26],10.1
